The list shows a part of the results.
tested on: PF3D7_0420300 AP2 domain 1 (GST-tagged); experiment: gcPBM binding intensity (ln(normalized median fluorescence intensity)); higher = stronger DNA binding
In short: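 GST-tagged P. falciparum DNA-binding domains produced in E. coli were incubated for 1 h on an Agilent 4 × 180k array of primer-extended double-stranded 36-bp intergenic genomic probes with negative controls. Binding intensity is the highest Masliner-normalised natural-log median intensity across replicate spots of either probe orientation, with bound protein detected by Alexa488 anti-GST antibody at 488 nm.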

Sequence | gcPBM binding intensity (ln)
CATACATACAGACACACACACATATTTATATTTATA [CACACA_site6172] | 9.94
TCCCTTAATTTTGTGTGTACATATAATATATTTTTA [XGTACX_site2789] | 9.63
GTTAATTATTAAATTTGTACTCATATATATTATATA [XGTACX_site6862] | 9.37
ACACAATAAACATTATGTACATATAATGTTCTGTGT [XGTACX_site3381] | 9.38
AATGATAATCTATTATGTACACATATATTCTTATGT [XGTACX_site4148] | 9.27
TATACATATGTATGCACACATACATACCCATATAAT [CACACA_site5842] | 9.32
CTATATATAAAATATTGTACTTATTTTTATTACATC [XGTACX_site3963] | 9.11
TTTTCTCAATTTTGGTGTACTTTTTTCTTAACACAT [XGTACX_site8918] | 9.49
TATTTAAAATATTAAATTTGTAAAGTTCGAGGGAAG [GTGCAC_negctrl_site337] | 9.1
GAAAAAAAAATATCTTGTACTTACATAACTATTGGT [XGTACX_site5326] | 9.13
AAAGGTTTATCTGATACACACATAAGTGATCAGGTT [CACACA_site6233] | 9.28
TAAATTAAAAAACATAAACTATTGGAAACGCATTGA [CACACA_negctrl_site935] | 9.46
AATTAATAAAAAAGGTGTACAGTAAATGCAATAATC [XGTACX_site7956] | 9.76
TCTTTTATATATAATAATTATATATAACATTCAAAC [GTGCAC_negctrl_site112] | 9.14
GTTAATCACCATGTGGTGCATATAAGGGCATATTAT [GTGCAC_site9748] | 9.22
CCTTATACGATATTATGTACGCATATGTGCATTTTT [XGTACX_site1570] | 9.35
ATAAATTCATACATTTGTACACAAAAAAAAAAAAAA [XGTACX_site2435] | 9.06
ATATATATATATTTATGTACATATTATTTATTCTTT [XGTACX_site6567] | 9.38
TAATGGTATAAAAAATGTACATGTTTTTTTACAATT [XGTACX_site4285] | 9.15

Sequence | gcPBM binding intensity (ln)
ATTATTTGATTAAAGGTGCAAGGATAATAATAAAAC | 9.59
TATATTTACTTATATGCACACATAAATGTGAATTAT [CACACA_site9258] | 9.23
TATTATATAATATACTGTACAATATCCATTATTTAC [XGTACX_site7091] | 9.3
ACATATAATAAAATAGTGCATTGTTAGTTTTATATA | 9.26
TTTTTTAAAGTTTAAAGTACATATAAAAATATATAA [XGTACX_site5267] | 8.81
CTTAAAATATATTTAGTGCATATACTAATATATTAT | 9.13
TATATATATATATTATGTACATATATAAATTAACAT [XGTACX_site3368] | 9.2
AATATAGGAATATGCACACATATATACATACATACA [CACACA_site1521] | 9.55
TATGAAAAAAAAAAAAAAAAAAAAAAAAAAAAAAAA [XGTACX_negctrl_site587] | 8.53
AAAAAAATAAAATATATATATATATATATATATATA [GTGCAC_negctrl_site706] | 8.9
TATATATGGATATATACACACAACGGTTATAAATAT [CACACA_site6655] | 9.64
TTTTTGTAACCGATTCTGCACTGAGAAGCACATATA | 9.08
TTATTTACAAAACAAATCAAAATATCCAAAAGAATA [CACACA_negctrl_site1789] | 9.04
GAAATTACTTTATAAACACACATTTATTTTATTTTA [CACACA_site7007] | 9.28
ATATTATACGCATATGTGCGCATACATTTTTTTGCA [GTGCAC_site9540] | 9.24
TACACATACAGACATACACACATACCCATATACTCA [CACACA_site5037] | 9.81
GGCATATATATATGCACACATACATATATACATGTG [CACACA_site3859] | 9.44
ATGTTATTAATAATTGCACACATTTTTTTTTTTTTT [CACACA_site3920] | 9.6
TCATATTTATATAAATGTACTTAATTGGTTTCTTTA [XGTACX_site7848] | 9.24

Sequence | gcPBM binding intensity (ln)
AGATTGTAAGTAAACACACACACATATATATGTATA [CACACA_site675] | 9.84
TTTATACAAATATGTACACACTAAATATATATTATG [CACACA_site4413] | 9.4
AAAAAAAAAAAAAACACACAGAAATATATATATATT [CACACA_site832] | 9.65
AAAGGAAAAGTTGACTGTACATAAGTAAAAAATAAT [XGTACX_site788] | 9.67
ATTCATTCCATACTTTAACACACAAATATATTTAAT [CACACA_site7930] | 9.57
TATATATATATATGTGGTACATAAAATTATTATTTT [XGTACX_site4554] | 9.24
ATAAAATTATCTACATGTACTCATATATATTTGTTT [XGTACX_site5911] | 9.49
AGAGAGAAAGTTATAACATGCAACAATTTTTAGAAG [TGCATGCA_site1] | 9.19
CTTTAAACCCTGAACACACACAAATACACCCAAAAA [CACACA_site4297] | 9.74
TTTGTATTAAAAAAAAAAAAAAAAAAAATGAATAAA [TGCATGCA_negctrl_site292] | 8.88
ATAACGGAAAAAAAAAGTACATGATATAAACATGAA [XGTACX_site8428] | 9.35
TTTTTTTTTTTTTTTTTTTTTTTTCATTTGATATTA [TGCATGCA_negctrl_site112] | 8.45
TTATTTATTCTATGTGCATGTTATTTTTTTTTTTCG [TGCATGCA_site262] | 9.52
AAAAATAAGATATATACACACATATAAATATAAATA [CACACA_site7396] | 9.75
AAGAAAAATACTACGTGTACCAAACTTCCTACCAAC [XGTACX_site1426] | 9.52
TATATATATATATTATGTACATATAAATATATTTTT [XGTACX_site1509] | 9.07
AATATATATATGTGTACACATCCAAAATAGGCATAC [CACACA_site5705] | 9.64
TGTAAATATAAAAGATAATGATAAAAGGGACATTTT [CACACA_negctrl_site661] | 9.47
ATATATATATAAATATGTACATATTTATATATGAAT [XGTACX_site3220] | 9.32

From the supplement of paper PMC11417369
